In all, about 120,000 compounds went through this assay and about 5,300 (4.4%) were called active. The inconclusive results got no clear call from the source; some entries with a clear call stand among them for comparison. The call rests on the fitted dose curve; in most records, active means well fitted inhibition curve with a large enough effect; inconclusive means small, poorly fitted or top-dose-only effect; inactive means no such curve, though single readings can be large or run the other way. Potencies beside an inconclusive call are fits to weak or partial responses and may not hold up.
Experiment: qHTS Primary assay for Inhibitors of Plasmodium falciparum Dd2 growth in vitro; further: nearly all actives have a fitted effect of over 65% in size
Conditions: P. falciparum Dd2 growth, SYBR Green, 72 h; series mostly up to 28.9 µM
Description: Malaria, a parasitic disease spread to humans through the bite of a Plasmodium infected Anopheles mosquito, continues to be a global health burden affecting millions of people, with an estimated 228 million cases and 405,000 deaths in 2018. Concerns about safety and limitations of current antimalarial treatments strongly emphasize the need to develop new therapeutic options. The scarce number of chemotypes and validated drug targets with efficacy against the liver stage, have hindered development of new antimalarials. To address this, a chemoprophylactic drug discovery effort was conducted through a combined phenotypic high-throughput asexual blood stage and liver stage screen, providing a robust foundation to identify liver-stage active lead chemotypes. Compounds were initially screened against Plasmodium falciparum Dd2 strain parasites using a in vitro SYBRGreen-1 based 72 hr proliferation assay to identify novel chemotypes to advance to liver stage assays. NIH/NCATS Early Translation Branch Assay Submitter (PI): Anton Simeonov Ph.D.
Malaria-vivax Assay Protocol: PROTOCOL TABLE (as described by Inglese et al., 2007) SEQUENCE No. (e.g., 1, 2, 3, etc.); […] (e.g., Cells, Incubation, Reagent, etc.); VALUE; DESCRIPTION SEQUENCE, Parameter, Description 1; Reagent; 3 uL complete malaria growth medium, 1536 TC treated Black clear bottom plate 2; Controls; 23 nL positive control artesunate (300 nM final) to column 1; Neutral control DMSO to columns 2-4 3; Compound; 23 nL of compounds in dose response concentration (29 uM to 0.5 nM final) 4; Reagent; 5 uL malaria infected red blood cells (2.5% hematocrit final, 0.3% parasitemia 5; Time; 72 hours at 37C (5% O2, 5% CO2, 90% N2; 95% Rh) 6; Reagent; 2 uL lysis buffer/SYBRGreen-1, 25 sec shake immediately following dispense 7; Time; ~16 hours at 37C (5% O2, 5% CO2, 90% N2; 95% Rh) 8; Detector; EnVision (PerkinElmer) bottom read at 485/14nm excitation and 535/25 nm emission NOTES (numbers refer to sequence above): 1; Complete Malaria Growth Media: 1X RPMI-1640 w/L-glutamine, 5.5g/L Albumax II, 367 uM Hypoxanthine, 25 mM HEPES, 0.25% Sodium Bicarbonate, 35 uM Gentamicin sulfate 2; Controls were added using the Kalypsis Pintool (Wako USA) equipped with 1536 pinhead 3; Compounds were added in a 7-point, titration with a high final concentration of 29 uM by Pintool from seven inter-plate titrations of library plates and two DMSO control plates at the beginning and end (see Yasgar et al., 2008). 4; Red blood cells infected with Plasmodium falciparum Dd2 parasites were used. 6; Lysis buffer: 20 mM Tris-HCl, 10 mM EDTA, 0.16% Saponin, 1.6% Triton-X, 10X SYBR Green. REFERENCE: Inglese J, Shamu CE, Guy RK. 2007. Reporting data from high-throughput screening of small-molecule libraries. Nat Chem Biol. doi:10.1038/nchembio0807-438 Yasgar A, Shinn P, Jadhav A, Auld D, Michael S, Zheng W, Austin CP, Inglese J, Simeonov A. 2008. Compound Management for Quantitative High-Throughput Screening. J Lab Autom 13:79-89. doi:10.1016/j.jala.2007.12.004
With `CCN(CC)C(=O)c1coc(COc2ccc3c(c2)C(c2cccc(F)c2)N(C(=O)C(C)C)CC3)n1` (stereo unspecified) the Potency was inconclusive: 2 µM [inhibitor, single point].
With `Cc1cc(C)c2c(=O)c3c(oc2c1)C(=O)N(Cc1ccc(F)cc1)C3c1cccc(O)c1` (stereo unspecified) the Potency was inconclusive: 10 µM [inhibitor, single point].
With `CCCNC(=O)CCc1ccc2c(c1)CN(C(=O)NCC)CCO2` the Potency was “inactive”.
With `CN1CCN(C[C@H]2CN3CC[C@H]2C[C@@H]3CNS(=O)(=O)c2ccccc2)CC1` the Potency was inconclusive: 2 µM [inhibitor, full curve, poor fit].
In the case of `CCOC(=O)c1ccc2c(c1)N(CC(=O)Nc1ccc(C)cc1C)C(=O)c1ccccc1S2`, the Potency is reported as inconclusive: 11.2 µM [inhibitor, single point].
With `CCOC(=O)Cn1c(=O)oc2cc(S(=O)(=O)N3CCN(c4ccccc4F)CC3)ccc21` the Potency was inconclusive: 17.8 µM [inhibitor, single point].
With `CS(=O)(=O)Nc1ccc(C2(C(=O)NCc3cccs3)CCCCC2)cc1` the Potency was “inactive”.
In the case of `CCOc1cc(C(=O)N2CCCN(c3cc(-c4ccccc4)[nH]n3)CC2)cc(OCC)c1OCC`, the Potency is reported as inconclusive: 1 µM [inhibitor, partial curve, poor fit].
With `O=C(NCc1ccc(Cl)cc1)[C@@H]1Cc2nc[nH]c2CN1C(=O)NC1CCCCC1` the Potency was inconclusive: 6.31 µM [inhibitor, full curve, poor fit].
With `CCOc1ccc(NC(=O)C2CCN(C(=O)c3ncn4c3COC(c3ccc(F)cc3)C4)CC2)cc1` (stereo unspecified) the Potency was “inactive”.
With `COc1ccc(NC(=O)c2ccnc(-c3nnc4ccc(Nc5ccccc5)nn34)c2)cn1` the Potency was inconclusive: 31.6 µM [inhibitor, single point].
With `COc1ccccc1Cn1c(CNS(=O)(=O)c2ccccc2Cl)nc2cccnc21` the Potency was inconclusive: 2.82 µM [inhibitor, single point].
With `C=CCN1CCN(C(=O)CCC[C@@H]2[C@H]3CCCN4CCC[C@@H](CN2Cc2ccccc2)[C@@H]34)CC1` the Potency was “inactive”.
For `Cc1c(Cl)cccc1Nc1nn2c(=O)c3ccc(C(=O)NCCc4ccccc4)cc3nc2s1`, the Potency was inconclusive: 1.26 µM [inhibitor, full curve].
In the case of `CN1CCOc2nc(-c3ccc(Oc4ccccc4)cc3)ncc2C1=O`, the Potency is reported as active: 5.01 µM.
With `O=C(Cc1cccc(F)c1)N1CCOc2ccc(CN3CCc4ccccc4C3)cc2C1` the Potency was inconclusive: 2.82 µM [inhibitor, single point].
In the case of `CC(=O)Nc1cc(-c2cn(C)c(=O)n3cc(COc4ccc(Cl)cc4)nc23)ccn1`, the Potency is reported as inconclusive: 0.447 µM [inhibitor, partial curve, poor fit].
For `COc1cccc([S+](=O)([O-])NC[C@@H]2CC[C@H]3C[C@@H]2C3(C)C)c1`, the Potency was inconclusive: 11.2 µM [inhibitor, partial curve, poor fit].
In the case of `Cc1cn2nc(C(=O)NC3CCCCCC3)cc2c(N2CCCC2)n1`, the Potency is reported as inconclusive: 2 µM [inhibitor, partial curve, poor fit].
With `COc1ccc(NC(=O)Cn2c(C)cc3nc4n(c(=O)c32)CCCCC4)cc1Cl` the Potency was inconclusive: 6.31 µM [inhibitor, single point].
In the case of `O=C([C@@H]1C[C@H](F)CN1C(=O)Nc1ccccc1C(F)(F)F)N1CCCCC1`, the Potency is reported as inconclusive: 20 µM [inhibitor, single point].
For `CCOc1ccc(CC(=O)NCCc2csc(-c3ccc(C(F)(F)F)cc3)n2)cc1`, the Potency was inconclusive: 17.8 µM [inhibitor, single point].
In the case of `O[C@H]1CC[C@@H](Cc2cc(CN3CCOCC3)on2)O[C@@H]1CNCc1ccccc1Cl`, the Potency is reported as “inactive”.
With `CNC(=O)CCn1ncc2cc(OCc3ccccc3-c3cccc(OC)c3)ccc21` the Potency was “inactive”.
For `O=C(Cc1ccc(F)cc1)N1CCC2(CC1)NC(=O)N(c1ccc(F)cc1)N2`, the Potency was “inactive”.
With `CN1CCN(CCCNC(=O)CCC[C@@H]2[C@H]3CCCN4CCC[C@@H](CN2Cc2ccccc2)[C@@H]34)CC1` the Potency was inconclusive: 10 µM [inhibitor, single point].
With `COc1ccc(C(=O)N2CC(c3nnc(-c4ccc(C)cc4)o3)C3(CCOCC3)C2)cc1` (stereo unspecified) the Potency was “inactive”.
In the case of `O=C(c1ccc2c(c1)N(Cc1ccc(Cl)cc1)C(=O)c1ccccc1S2=O)N1CCN(c2ccccc2F)CC1` (stereo unspecified), the Potency is reported as inconclusive: 12.6 µM [inhibitor, single point].
With `COc1cccc(F)c1-c1ccc(COc2ccc3c(cnn3CCC(=O)O)c2)cc1` the Potency was “inactive”.
In the case of `Cc1nn(CCC(=O)N[C@H]2CC[C@H]2NC2CCCCC2)c(C)c1C`, the Potency is reported as inconclusive: 1.78 µM [inhibitor, full curve].
With `CCOC(=O)c1ccccc1NC(=O)CN1C(=O)CC(c2ccco2)Sc2ccccc21` (stereo unspecified) the Potency was “inactive”.

— PubChem BioAssay AID1347417 (National Center for Advancing Translational Sciences (NCATS), 2020)
Potency means the concentration at half of the fitted maximal effect; tags describe the fitted curve by direction and shape.
